Structures are written as SMILES. In all, about 310,000 compounds went through this assay and about 14,000 (4.5%) showed an effect of 50% or more. Effects have a minus sign here. Some of the results follow.
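Note: peak tail current of the secondary pulse compared with the same well before compound.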

The test deals with human ether-à-go-go-related gene (hERG) potassium channel (human, UniProt Q12809). Put plainly: primary screen, population patch clamp on CHO cells stably expressing hERG.
human ether-à-go-go-related gene (hERG) potassium channel, sequence (Q12809 whole entry, looked up): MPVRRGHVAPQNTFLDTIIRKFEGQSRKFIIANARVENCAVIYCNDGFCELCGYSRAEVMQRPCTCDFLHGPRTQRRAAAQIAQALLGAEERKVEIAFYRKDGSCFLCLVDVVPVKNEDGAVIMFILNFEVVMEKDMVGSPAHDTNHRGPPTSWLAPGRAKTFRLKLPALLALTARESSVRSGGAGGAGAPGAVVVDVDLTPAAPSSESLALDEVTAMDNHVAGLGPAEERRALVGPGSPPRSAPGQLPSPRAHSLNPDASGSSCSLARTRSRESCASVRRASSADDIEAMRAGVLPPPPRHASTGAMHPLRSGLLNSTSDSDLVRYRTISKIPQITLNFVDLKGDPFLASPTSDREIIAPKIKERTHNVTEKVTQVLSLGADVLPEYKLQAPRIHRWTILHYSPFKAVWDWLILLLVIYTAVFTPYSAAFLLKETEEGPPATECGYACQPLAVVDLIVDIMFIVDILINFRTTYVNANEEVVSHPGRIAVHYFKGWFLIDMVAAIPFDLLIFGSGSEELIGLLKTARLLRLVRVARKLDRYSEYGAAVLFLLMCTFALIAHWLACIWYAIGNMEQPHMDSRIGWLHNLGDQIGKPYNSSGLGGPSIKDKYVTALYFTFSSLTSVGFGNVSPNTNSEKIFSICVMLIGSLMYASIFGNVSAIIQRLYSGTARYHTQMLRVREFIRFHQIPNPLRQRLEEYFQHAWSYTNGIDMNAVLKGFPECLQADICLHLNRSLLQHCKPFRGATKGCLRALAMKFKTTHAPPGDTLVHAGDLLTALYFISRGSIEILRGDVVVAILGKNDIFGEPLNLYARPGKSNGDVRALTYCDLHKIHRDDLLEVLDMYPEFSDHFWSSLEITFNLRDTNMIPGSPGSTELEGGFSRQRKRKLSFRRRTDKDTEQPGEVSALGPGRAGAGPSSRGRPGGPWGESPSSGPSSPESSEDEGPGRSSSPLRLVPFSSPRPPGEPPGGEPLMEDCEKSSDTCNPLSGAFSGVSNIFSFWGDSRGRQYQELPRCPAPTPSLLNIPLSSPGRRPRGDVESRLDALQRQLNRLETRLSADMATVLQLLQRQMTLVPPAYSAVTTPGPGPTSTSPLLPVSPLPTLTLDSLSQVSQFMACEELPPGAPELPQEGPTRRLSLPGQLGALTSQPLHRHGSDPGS
As to `Cc1ccc(OCCN2CCCC2)cc1.O=C(O)C(=O)O`, the “hERG current change (%, negative = inhibition) at 10uM” value is given as -3.76%.
The same measure for `CCOc1ccc(NC(=S)N2CCCCCC2)cc1`: -0.435%; for `CC12CN3CCN(CC(C3)/C1=N\NC(=O)Nc1cccc(Cl)c1)C2`: -13.5%.
The same measure for `O=S(=O)(Nc1ncccn1)c1ccc(Nc2ncnc3ccccc23)cc1`: -10.8%; for `CCc1ccc(NC(=O)c2ccc(S(=O)(=O)NCc3cccnc3)cc2)cc1`: 0.0585%; for `N=C1C(c2nc3ccccc3[nH]2)=C(O)CN1NC(=O)COc1cccc(F)c1`: -24.9%.
The same measure for `CCOc1ccc(CCNC(=O)CCc2nnc3ccc(N4CCOCC4)nn23)cc1`: -2.18%; for `O=C(NCc1ccco1)c1ccc(NC(=O)C2COc3ccccc3O2)cc1` (centres unmarked): -2.61%; for `COc1ccc(-n2cc(-c3ccccc3)c3c(N4CC(C)OC(C)C4)ncnc32)cc1` (centres unmarked): 3.9%.
With `C/C(=N\N=C(/N)SC1CC(=O)N(c2ccc(Cl)c(Cl)c2)C1=O)c1cccs1` (centres unmarked), the “hERG current change (%, negative = inhibition) at 10uM” value was 20.3%.
The same measure for `Cc1c(C)n(CC(O)CN2CCOCC2)c2ccccc12.O=C(O)C(=O)O` (centres unmarked): -11.9%.
The same measure for `COc1ccc(OCc2cc(C(=O)N3CCCC(O)C3)no2)c2ccccc12` (centres unmarked): -13.3%; for `Nc1nnc(SCCCC(=O)c2ccccc2)s1`: 3.13%; for `COC(=O)c1csc(S(=O)(=O)N2CCOCC2)c1OC`: 17.8%.
Take `CCOc1cc(/C=N/NC(=O)C(=O)NC)cc(Br)c1O`: the “hERG current change (%, negative = inhibition) at 10uM” value came to 19.3%.
In the case of `O=c1cc(O)c(-c2ccccc2)c(Cl)[nH]1`, the “hERG current change (%, negative = inhibition) at 10uM” value is recorded as 11%.
The same measure for `O=C(c1cnn2ccccc12)N1CCN(C2CCCCC2)CC1`: -9.39%.
The same measure for `Cc1ccc2nc(NC(=O)C3CCCN(S(=O)(=O)c4cccnc4)C3)sc2c1` (centres unmarked): -1.04%; for `CS(=O)(=O)N(CC(=O)N1CCOCC1)c1ccccc1`: 15.9%.
The same measure for `CC(Oc1ccc2c(-c3ccccc3)cc(=O)oc2c1)C(=O)NC(Cc1c[nH]c2ccc(O)cc12)C(=O)O` (centres unmarked): 16.2%.
Regarding `CC1=CC(C)(C)N=C(Nc2ccc(C)cc2)S1`, the “hERG current change (%, negative = inhibition) at 10uM” value is reported as -5.2%.
The same measure for `Cc1cccc(Nc2nc(-c3ccc4c(c3)OCCO4)cs2)c1`: 10.8%.
Regarding `CC(=O)C(Cc1ccc(Cl)nc1)Cc1ccc(Cl)nc1`, the “hERG current change (%, negative = inhibition) at 10uM” value is 15.1%.
As for `Cc1cccc(OCCOCCSc2ncccn2)c1`, the “hERG current change (%, negative = inhibition) at 10uM” value is reported as -9.63%.
For `Fc1ccccc1C1c2cccn2CCN1C(=S)Nc1ccc(Br)cc1` (centres unmarked) the value was 17.8%; for `COC(=O)Cn1c2[n+](c3ccccc31)CC(O)CS2.[Br-]` (centres unmarked), 5.92%.
For `COc1cc(C(=O)Nc2nnc(CC(C)C)s2)c([N+](=O)[O-])cc1OC` the value was 17.1%; for `COc1cc(/C=N/NC(=O)c2cccc3ccccc23)cc(OC)c1O`, -2.75%.
For `CCCCNC(=O)CS(=O)Cc1nc(-c2ccc(C)cc2)oc1C` (centres unmarked) the value was -17.5%; for `O=C(CCn1c(=S)[nH]c2ccccc2c1=O)NCCSCc1ccccc1`, 5.79%.
As to `C/C(CC(=O)Nc1cccc2c1CCCC2)=N\NC(=O)Cc1ccccc1`, the “hERG current change (%, negative = inhibition) at 10uM” value was found to be 25.2%.
For `Cc1cccnc1NC(=O)CCNC(=O)c1ccccc1Cl` the value was 52.5%.
The same measure for `COc1oc(-c2ccccc2)nc1C(F)(F)F`: -8.93%.
For `COc1ccc(-c2csc(/C(C#N)=C\c3ccc(O)c([N+](=O)[O-])c3)n2)cc1OC` the value was 9.54%; for `CC(C)C(NC(=O)CN1C(=O)c2cccc3cccc1c23)C(C)C`, 20.1%; for `C[n+]1c2n(c3ccccc31)N=C(c1cc(C(C)(C)C)c(O)c(C(C)(C)C)c1)CS2.[Br-]`, -77.6%.
For the molecule `COc1ccc(N2CCN(c3nc4c(C)cccn4c(=O)c3/C=C(\C#N)C(N)=O)CC2)cc1`, the “hERG current change (%, negative = inhibition) at 10uM” value was -23%.
For `CC(=O)Nc1ccc2ccccc2c1` the value was -7.46%; for `Cc1csc(SCc2nc3scc(-c4ccccc4)c3c(=O)[nH]2)n1`, -4.64%; for `CCCCOC(=O)CSCC(=O)N1N=C(c2cccs2)CC1c1ccc(F)cc1` (centres unmarked), -8.65%.
The same measure for `Cn1cc(/C=N/NC(=O)c2ccccc2O)c2ccccc21`: 10.2%; for `Cc1c(C(=O)NCc2ccccc2)oc2ccc(S(=O)(=O)N3CCC4(CC3)OCCO4)cc12`: -0.453%; for `CCCOC(=O)C1=C(C)OC23OC(N)=C(C#N)C12C(=O)c1ccccc13` (centres unmarked): -16.1%.
The same measure for `O=C(Nc1ccccc1F)c1ccc2c(c1)CCN2S(=O)(=O)c1ccccc1`: 19.5%.
Turning to `N#C/C(=C(/O)Cc1cccc2ccccc12)c1nc2ccccc2s1`, the “hERG current change (%, negative = inhibition) at 10uM” value was 22.5%.
For `COc1ccccc1NC(=S)N(Cc1cccnc1)Cc1ccccc1Cl` the value was -33.5%.
For `Cc1ccc(S(=O)(=O)N2CCOC23CCN(C(=O)c2ccc(Cl)cc2Cl)CC3)cc1` the value was -48.1%; for `Cc1ccc(C)c(NC(=O)NNC(=O)c2cc3ccccc3cc2O)c1`, -20.4%.
The same measure for `COc1ccc(C(=O)N2CCN(C3CCCCC3)CC2)c(OC)c1`: -73.6%; for `CC1CCCCN1C(=O)Cn1cc(C(=O)c2ccco2)c2ccccc21` (centres unmarked): -11.5%.
For the molecule `Cc1ccc(NC(=O)C(C)[n+]2ccccc2)cc1[N+](=O)[O-].[Br-]` (centres unmarked), the “hERG current change (%, negative = inhibition) at 10uM” value worked out at 1.75%.
The same measure for `COc1ccccc1NC(=O)Cc1noc(CSc2nnc(C)s2)n1`: -4.77%; for `CN(C)CCN(C(=O)C1CCN(S(=O)(=O)c2cccs2)CC1)c1nc2c(F)cccc2s1.Cl`: -16.4%; for `O=C(COc1ccc(/C=N/NC(=O)c2ccncc2)cc1)Nc1ccccc1`: 12%.
For `Cc1c2cc(O)c(=O)cc-2oc2cc(O)c(O)cc12` the value was -3.84%.
The same measure for `CSc1nsc(/C=C/Nc2ccc(Cl)cc2)c1C#N`: 8.59%.

The values above are taken from paper PMC4336329 (PLoS ONE, 2015).
